Experimental data as given in the supplement of paper PMC12632987.
The full ranking holds about 2,300 sequences; the median of “median log2 fold change of GCK-ALFA target abundance (FLAG IP / Myc IP barcode read proportion)” is about 0.095, and the lowest 2% start at about -0.47. The list shows a part of the results.

B1: LC3A_28_1013 (protein)
chain: MSIVEETKKKIEEALKEAEKGEDAYLEVEITSEATQEEVEEVLELIEKAAKEVSKLPNVKLYVVIYDDSNQENHQLIVDAADRIEEKYPNVHVIVAYDDE
B2: LC3A_28_979 (protein)
chain: SALEKELAAKIAEAKKAAAAGEPAVITIKVSGDTNEEQLAKIIETLEEIAEILKDVKGSAIIIDIDRGVDPKHKQKLIDKGEEIEKKYPNVTVIFALEEE
B3: LC3A_28_1040 (protein)
chain: SALEAAAAAALAEAEEQLAAGDEAVVTLTVTDTPTDEAAATVAAFLAAARELSARYGGKKIYVVIDYDGDQDTLDALADIADEAEAADPNLTVIIAYDDK
B4: LC3A_28_1160 (protein)
chain: SKIEESIAKARAEAEAAIAAGEPAVIELTVTPDATEEDVERVIKALEELAALGEKHGLLDILVNVEEGVKQEHINRIADAAEEIEKKYPKVTIIIALSEE
B5: LC3A_28_672 (protein)
chain: SALDEQLEAALKQAKELAAKGEAGVIVIKVPGDATEEEIERLIEALEEIAEILKDVKGAAIIIELDKDLKEEHRDRIIDAAEEINEKYPNVTVIIAEEER
B6: LC3A_3_1507 (protein)
chain: KEELIEELRKILEEMGASEEVIEKFEEALKKLLERGYEKAAEKLLELVKEMKDLSNELLLEFAEEVLELLEKGDLSEEELIEEIEKIAKITKSAGEIEEL
B7: LC3A_141_363 (protein)
chain: EVKVKTITLTATTEEEAEQAAEEIGKNIEAFMKETGAEKVTVTTTITAKNAATGETTTTTDTDIVTKENLDLYIEGLRIDLLSAFDAGADEITVTVTIET
B8: LC3A_free_8_2464 (protein)
chain: ASQKLVDTIVAKLDELEKALVKKAKEEGKSRLDILELELEVGSAIAELISNVDASPEEILKTLKEDLKDIIKVAKEIGEEVAKLAKEKSKEILAEAEALI
B9: LC3A_free_8_2485 (protein)
chain: SLEETQKKMLEIIDKTEEEVEKKMKELGADELDINDILLLLGEVEIAVHELTPENIEETKKEITDAFDEAIKEAEEIDPEIAKIVTEAKEKVLKLLDEAK
B10: LC3A_3_1436 (protein)
chain: MEELLEEAKKVLEEIGASEEAKEAVLRLVKLALAAGEEELVEELIKVLKKAKNVPSEDILEAAERALRRVEEEGVPVEEALKELIEELRVLALEQEIEEL
B11: LC3A_free_46_2371 (protein)
chain: MKITIYLYKEGFTEEEAKKLAEELEKKIKEIAKKHGVKVKVKSEVVKNKDGSYLVKITVEIDAPTEELAQKVEQEIIDTVEEIAKKTGAAAIISVEKIEP
B12: LC3A_147_506 (protein)
chain: YLLTIEIDIIVKNAEEEVKEKVEEIKKKLEEKGFKVEVKIETEKLDEETTYIKITIKVEAKTKEEAEEARDLILDEWDKFEEKNKDKILGSLISYEIEEK
B13: LC3A_23_626 (protein)
chain: KVKLTVLIDTIGSEEEIEENIKKIKEKVKEIEKKYKDKVLEVKIEVEKEKDEDGKTIGTIKITIVFDDDEEAAKEAADELISFADENIPNGVVSYEIEKL
B14: LC3A_128_233 (protein)
chain: SEKREEIIKLLEEARKLAEELPQSPEAKEIKEKLIKELDAAIKLLKEGGDLEEVQKELDKADELAEELREKTDVDRLKVLELELLIGEAIALVQEMINDK
B15: LC3A_free_8_2489 (protein)
chain: KSQELANLASDLLDELEEEVEKKAKELGASELDILDLSLLIGSTIAEAYSLSDESPEKIIEAVREGLEELIERAKEISEELAKKVKELSEKILKELEEKA
B16: LC3A_132_300 (protein)
chain: NKELAEKLKEEIKKLVEEAKENIDNEEKVRELFKKIEKLLEEAEKKLTPEEQAEVFEYAAELLDELSKVFLEKGKEELAEEADGLAIEAESLSLRAKEKI
B17: LC3A_free_39_2185 (protein)
chain: SAEEREKYVEEALALAAEEGEETEELAKRLLEVLGDDVEAVKKFLELLKEMKEEGVDLKEALEEALALAEQLKAEGKSQEEIAKAVLEQLQDHINLIPID
B18: LC3A_free_46_2355 (protein)
chain: VKAEILIDLLHEDEEVLKKAVEEIKKAAKEIAKKYGLKVEIKEEISKLPDGSYYAEIEITLTGETKEKLEKAVTELINKIDEIAKKYNVAAIISYEIIEE
B19: LC3A_3_1591 (protein)
chain: MEELVEEALARLEAAGLSPEVLAAARELLEALAEKGYEEAIKTTTELLLENRDLPDEVLVDTLNDILHIVETEDLDEEEIIERIKEEFRVARLEGEIEEL
B20: LC3A_3_1816 (protein)
chain: LEERVEAALERLRAAGASPETLEAFRAAAEALRERGYEEALKTLIELTEELLDLPSELLLAFFQDVLALIETSDLNEEEIKEKIKEIASTHRNEAEIEEL
B21: LC3A_3_1437 (protein)
chain: MEELLREAEEVLEEIGASEEAREAVLELVRLALEAGEEEGVKRLIEVLKEAKNVPSEEVLEAAERALRRVREEGVPIGEALEELIEELRVLALEQEIEEL
B22: LC3A_28_1325 (protein)
chain: SHIEEELERAEKEAEEALAKGEPALLEITVKPTTTVEEAEELMERLEEIIAKYAPKQKISVIINVESGVKQEVIDVIAEKAEEIEEKFPNVTVIIALDED
B23: LC3A_28_1049 (protein)
chain: SPIEEELKRALEEAKEAVARGEEALIRLTIGKDATEEDVEKVLETMEEIAELTKSLPRVDIVVDVDSENKEEVTKKIAEKGEELEKKYPNVTVYIALSEE
B24: LC3A_3_1902 (protein)
chain: MEELKEKLLEALKEAGASEETIEDAKEALDLIFSRGLEEVAKLFVEAVLELLKISVEKAEEFIREFLEAVKSFKGSNEEFEKFLKEEIKTLYNEQLIEEL
B25: LC3A_3_1434 (protein)
chain: SAALLARAEAVLAAAGFSPEARAAVLELVRRALAAGEEAGVERLIEVLAEAKDVPSEEVLAAARAALRRYEEEGVPMAEVVADFIAELRVLRLEEEIEEL
B26: LC3A_62_2054 (protein)
chain: MEKGTIYVDMLFKTKETMEEAKERIKEIVEEMKKEGVNVELEIEEEEEDGEYFLHVTITTDSREATLEAEDRVLDLIDELIAKHPEDVLAAIVSREIEEL
B27: LC3A_free_8_2528 (protein)
chain: SVQELVDTLTAQLDELEKALVEKAKELGLSELDINELELEVGEAIIEIIELEDKSKEEILKKLKEELKRIIELAKEISEEVAKLAEEKSKEIIEEAEKLI
B28: LC3A_61_2040 (protein)
chain: EEVVLPTEELTERLRRVLERLRELAEKGSEELKKLLEEAEEELRKLAEEELAVEEGLELAEKYLEEIEKSESEEERLKLAEELLDELKDLLLLAPIDDDE
B29: LC3A_28_1324 (protein)
chain: SHIEEELAKARAEAEEQAAKGEEITLTVEISGETTLEEAEEMMEALEEIAEKYAPKRKVNIIIDLDGGVAQEVIDLIAEKAEEIEKKYPNVTVIIALDEE

Molecular target: MAP1LC3A, Q9H492
Assay: median log2 fold change of GCK-ALFA target abundance (FLAG IP / Myc IP barcode read proportion) (log2 ratio); each designed protein is fused to an ALFA-tag nanobody in HEK293 cells to bring the named protein to FLAG-tagged glucokinase (GCK); Myc marks an untargeted standard; higher = target protein stabilised (more abundant)
Details: target protein: 3xFLAG-MCP-GCK-ALFA reporter; HEK293 landing pad (RPLP)
In short: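 Binders fused to an ALFA nanobody were recombined as a library into HEK293 landing-pad cells, which were induced with 2 μg mL^−1 doxycycline and then transfected to express a FLAG-tagged target and a Myc-tagged standard. After 48 h, circular RNA barcodes recovered by anti-FLAG and anti-Myc immunoprecipitation of lysates were reverse transcribed, amplified and sequenced. Each binder's target abundance is the median log2 ratio of FLAG to Myc barcode read proportions, from barcodes present at ≥10^−7 in both replicates, binders carrying ≥3 barcodes per replicate, a 10^−6 pseudocount and pooled replicates.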

Binder | median log2 fold change
B1 | -0.261
B2 | -0.00812
B3 | -0.0392
B4 | 0.114
B5 | 0.24
B6 | 0.223
B7 | 0.172
B8 | -0.304
B9 | -0.0593
B10 | 0.315
B11 | 0.173
B12 | -0.346
B13 | 0.187
B14 | 0.149
B15 | 0.0352
B16 | 0.318
B17 | 0.241
B18 | -0.335
B19 | 0.202
B20 | 0.291
B21 | 0.178
B22 | 0.0261
B23 | 0.00401
B24 | 0.236
B25 | 0.143
B26 | -0.359
B27 | -0.0825
B28 | 0.055
B29 | 0.05
